Measurements taken from PubChem BioAssay AID686970 (National Center for Advancing Translational Sciences (NCATS), 2013).
Screen size: about 360,000 compounds; about 6,000 (1.7%) were called active. Inconclusive means that the source gave no clear call. Such entries were picked first, then a sample of the others. The call rests on the fitted dose curve; in most records, active means well fitted cell-killing curve with a large enough effect; inconclusive means small, poorly fitted or top-dose-only effect, or effect the other way; inactive means flat fitted curve, though single readings scatter. Potencies of inconclusive entries are left out as doubtful fits.

assay: qHTS for induction of synthetic lethality in tumor cells producing 2HG: qHTS for the HT-1080-NT fibrosarcoma cell line; conditions: HT-1080-NT fibrosarcoma viability, CellTiter-Glo ATP luminescence, 48 h; activity, negative = less viability: at 46.1 µM (top of the series) unless noted;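 further: NT is the 2HG producing partner of a matched IDH1 knockdown line; nearly all actives have a fitted effect of over 55% in size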;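 on activity, negative = less viability: 0% = DMSO-treated cells and -100% = media-only wells without cells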
How it was run: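 Read-out is CellTiter-Glo luminescence after 10 minutes at room temperature, following 48 hours' compound treatment of HT-1080-NT cells (750 cells/well, RPMI, 5% FBS, 37 degrees C).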
Potency means the concentration at half of the fitted maximal effect; tags describe the fitted curve by direction and shape.

| SMILES | Potency | activity, negative = less viability |
| --- | --- | --- |
| CCOC(=O)C1=CCN(S(=O)(=O)c2ccccc2Br)C1c1ccc(C)cc1 (stereo not given) | inconclusive [cytotoxic, single point] |  |
| O=C(COc1ccc(Br)cc1)Nc1ccc(Cc2ccncc2)cc1 |  | inactive: 19.8% |
| CCCCCCCC(=O)N/N=C(\C)c1ccc(O)cc1O | inconclusive [cytotoxic, partial curve] |  |
| C#CCOCCOCCOCCNc1nc(N2CCN(C(=O)[C@H]([C@@H](C)CC)n3cc([C@@H](N)Cc4ccc(O)cc4)nn3)CC2)nc(N2CCN(C(=O)[C@H](Cc3cc4ccccc4[nH]3)n3cc([C@@H](N)CC(C)C)nn3)CC2)n1 |  | inactive: 5.67% |
| CN1CCN(c2ccc(S(=O)(=O)N3CCCCC3)cc2NC(=O)Cc2c(F)cccc2Cl)CC1 |  | inactive: -4.64% |
| COC(=O)c1ccc(OCC2c3cc(OC)c(OC)cc3CCN2C(=O)c2ccco2)cc1 (stereo not given) |  | inactive: -28.8% |
| C/C=C/c1ccc(O)c(OC)c1 |  | inactive: -1.98% |
| CCN(CC)S(=O)(=O)c1cc(NC(=O)CSc2n[nH]c(N)n2)ccc1C |  | inactive: 0.291% |
| Cc1ccc(C(NC(=O)N2CCOCC2)C(Cl)Cl)cc1F (stereo not given) |  | inactive: 7.23% |
| CCC(=O)N1CCc2cc(Br)cc(S(=O)(=O)CCC(=O)NCCc3ccccc3)c21 | inconclusive [cytotoxic, single point] |  |
| CCc1ccc(-c2nc(CN3CCC(C(=O)NCc4ccccc4OC)CC3)c(C)o2)cc1 |  | inactive: -22.3% |
| O=C(Nc1nc(-c2ccc3ccccc3c2)cs1)C1CCN(S(=O)(=O)c2cccs2)CC1 |  | inactive: -6.97% |
| CCc1nc2c(OCc3ccc(Cl)cc3Cl)cccn2c1N(C)C(=O)c1ccccc1F | inconclusive [cytotoxic, single point] |  |
| COc1ccc(NC(=O)N2CCCC(c3nc(-c4ccc(C(C)C)cc4)no3)C2)cc1 (stereo not given) | active: 11.2 µM |  |
| O=C(Nc1ccc2ccccc2c1)c1ccc(Br)o1 | inconclusive [cytotoxic, single point] |  |
| CC1CC(C)CN(CCCNC(=O)c2cc3c(s2)-c2ccccc2OC3)C1 (stereo not given) | active: 18.4 µM |  |
| Cc1ccc2nc(-c3ccc(NC(=O)CN4CCN(C(=O)c5ccco5)CC4)cc3)sc2c1 | inconclusive [cytotoxic, single point] |  |
| CCOc1ccc(C2C=C(c3ccc(C)cc3)Nc3nnnn32)cc1 (stereo not given) | inconclusive [cytotoxic, partial curve] |  |
| O=C(c1cn(-c2ccccc2)nc1-c1cccs1)N1CCOCC1 |  | inactive: -3.02% |
| CCOc1ccccc1C(=O)N1c2ccccc2Sc2ccccc21 | inconclusive [cytotoxic, single point] |  |
| CCc1c(C)nc(SCCOc2ccc(OC(C)C)cc2)[nH]c1=O | inconclusive [cytotoxic, single point] |  |
| CC(=O)Nc1ccc(S(=O)(=O)Nc2ccc(S(=O)(=O)Nc3nccs3)cc2)cc1 | inconclusive [rising, partial curve] |  |
| COc1ccc(-c2n[nH]c(C)c2-c2ccc(Cl)cc2)c(O)c1 | active: 20.6 µM |  |

| SMILES | Potency | activity, negative = less viability |
| --- | --- | --- |
| C[C@H](c1ccccc1)N1C[C@H](COCc2ccccc2)Oc2cc(N3CCC[C@@H]3CO)ccc2S1(=O)=O | inconclusive [cytotoxic, single point] |  |
| CC(C)CN(C(=O)COC(=O)C12CC3CC(CC(O)(C3)C1)C2)c1c(N)n(Cc2ccccc2)c(=O)[nH]c1=O |  | inactive: 14.4% |
| COc1ccc(-n2nc3ccc(NS(C)(=O)=O)cc3n2)cc1Cl | inconclusive [cytotoxic, single point] |  |
| COCC(C)NC(=O)C1CC(c2cccc(Br)c2)=NO1 (stereo not given) |  | inactive: -0.0914% |
| O[C@@H]1CN(Cc2ccc(-n3cccn3)cc2)CC[C@H]1N1CCN(c2ccccc2F)CC1 | inconclusive [cytotoxic, single point] |  |
| Cc1ccc(Nc2nc3ccccc3n3cnnc23)cc1C |  | inactive: 16.6% |
| C=CCn1c(SCc2ccccc2Cl)nnc1-c1sc2nc(C)cc(C)c2c1N | inconclusive [rising, full curve] |  |
| CCN1CCN(c2cc(C)c3cc(NC(=O)CCC(=O)Nc4ccc(OC)cc4OC)ccc3n2)CC1 | inconclusive [cytotoxic, partial curve] |  |
| O=C(C1CCC(CNS(=O)(=O)c2cccc3nsnc23)CC1)N1CC=C(c2ccccc2)CC1 (stereo not given) |  | inactive: -13.5% |
| COc1cc(/C=C/C(=O)OCC(=O)N(C)C2CCS(=O)(=O)C2)ccc1OC(F)F (stereo not given) |  | inactive: -0.236% |
| Cn1c(=O)c(=O)n(C)c2cc([N+](=O)[O-])c([N+](=O)[O-])cc21 | inconclusive [cytotoxic, single point] |  |
| CC(=O)OCC1=C(C(=O)O)N2C(=O)C(NC(=O)c3ccc(COc4cccc(Cl)c4Cl)o3)C2SC1 (stereo not given) | inconclusive [cytotoxic, partial curve, poor fit] |  |
| O=C(CN(C(=O)CNS(=O)(=O)c1ccccc1)C1CCCC1)NCc1ccco1 |  | inactive: 14.4% |
| Cc1ccc(C(=O)N2CCCC(N3CCN(c4cccc(C(F)(F)F)c4)CC3)C2)s1 (stereo not given) | inconclusive [cytotoxic, single point] |  |
| OC(c1ccccc1)(c1ccccc1)C1CCN(CCCOc2cccc(OC(F)(F)F)c2)CC1 | active: 18.4 µM |  |
| COc1ccc(Cl)cc1NC(=O)C(C)N1CCN(C/C=C/c2ccccc2)CC1 (stereo not given) | inconclusive [cytotoxic, single point] |  |
| CC(=NCc1ccco1)c1c(C)[nH]n(-c2nc3ccccc3s2)c1=O | inconclusive [cytotoxic, partial curve] |  |
| O=C(/C=C/c1cccc([N+](=O)[O-])c1)c1cccs1 | active: 10.3 µM |  |
| COc1ccc(-c2cc(C(=O)OCC(=O)c3c(N)n(C)c(=O)n(C)c3=O)c3ccccc3n2)cc1 |  | inactive: 20.1% |
| NNC(=O)/C(=C\c1ccco1)NC(=O)c1ccco1 | active: 14.6 µM |  |
| COC(=O)c1c(C)oc2ccc(N(C(=O)c3ccncc3)S(=O)(=O)c3ccc4ccccc4c3)cc12 | inconclusive [cytotoxic, partial curve] |  |
| CCn1c2ccccc2c2cc(NC(=O)CNCC3CCCO3)ccc21 (stereo not given) | inconclusive [cytotoxic, single point] |  |
